Assay results published in article PMC11383924.
These are yes or no findings as the source states them, for the method shown. Some binding calls cover weakened binding; strength is not graded here. For part of these data: Sequences can lack the tags named with a protein.

Key:
Assay in all cases: two-hybrid; bacterial two-hybrid (BACTH): T18 and T25 fusions of CyaA co-expressed in E. coli BTH101; LB plates with X-Gal and 0.5 mM IPTG, up to 36 h at 28 °C; blue colonies indicate an interaction
[1] = molecular target: T1, Fur, global regulator for iron homoeostasis (Bacillus subtilis) (UniProt P54574)
T1 sequence: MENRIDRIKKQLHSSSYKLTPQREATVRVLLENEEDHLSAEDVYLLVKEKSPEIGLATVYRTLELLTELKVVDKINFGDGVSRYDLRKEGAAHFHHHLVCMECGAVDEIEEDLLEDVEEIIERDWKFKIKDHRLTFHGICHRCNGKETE

[2] = molecular target: T2, Fpa (Fur protein antagonist), formerly YlaN (Bacillus subtilis) (UniProt O07638)
T2 sequence: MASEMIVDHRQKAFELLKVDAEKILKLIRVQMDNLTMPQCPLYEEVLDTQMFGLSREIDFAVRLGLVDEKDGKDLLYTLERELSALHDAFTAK

[3] = molecular target: mutant Fur (Fur*, K18A R23E Y60E) (Bacillus subtilis) (UniProt P54574)

B1: Fpa (Fur protein antagonist), formerly YlaN (protein, UniProt O07638 1-93)
chain: MASEMIVDHRQKAFELLKVDAEKILKLIRVQMDNLTMPQCPLYEEVLDTQMFGLSREIDFAVRLGLVDEKDGKDLLYTLERELSALHDAFTAK
[1]
  binding: binds
[2]
  binding: binds

B2: Fur, global regulator for iron homoeostasis (protein, UniProt P54574 1-149)
chain: MENRIDRIKKQLHSSSYKLTPQREATVRVLLENEEDHLSAEDVYLLVKEKSPEIGLATVYRTLELLTELKVVDKINFGDGVSRYDLRKEGAAHFHHHLVCMECGAVDEIEEDLLEDVEEIIERDWKFKIKDHRLTFHGICHRCNGKETE
[1]
  binding: binds

B3: mutant Fur (Fur*, K18A R23E Y60E) (protein, UniProt P54574 1-149)
chain: MENRIDRIKKQLHSSSYALTPQEEATVRVLLENEEDHLSAEDVYLLVKEKSPEIGLATVERTLELLTELKVVDKINFGDGVSRYDLRKEGAAHFHHHLVCMECGAVDEIEEDLLEDVEEIIERDWKFKIKDHRLTFHGICHRCNGKETE
[3]
  binding: binds
[1]
  binding: binds
[2]
  binding: no binding
